# Reference: the supplement of paper PMC12217912
# This is one part of the list. The full chains were built here from the parent and the listed change. Inactive controls read about 0.05.
# B1: TEV protease; numbered along this chain (parent)
# chain: MGESLFKGPRDYNPISSSICHLTNESDGHTTSLYGIGFGPFIITNKHLFRRNNGTLVVQSLHGVFKVKDTTTLQQHLVDGRDMIIIRMPKDFPPFPQKLKFREPQREERICLVTTNFQTKSMSSMVSDTSCTFPSGDGIFWKHWIQTKDGQCGSPLVSTRDGFIVGIHSASNFTNTNNYFTSVPKNFMELLTNQEAQQWVSGWRLNADSVLWGGHKVFMVKPEEPFQPVKEATQL
# Variants of: B1
# Experiment: raw area under fraction-flipped curve 0-4 h after induction (AUC4h, not background-subtracted), DNA-recorder readout of cleavage of the substrate (dimensionless); higher = more cleavage of the substrate by the protease variant
# Details: temperature: 34 °C; time window: 0-4 h after rhamnose induction
# Procedure: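 In vivo DNA recorder in E. coli TOP10(DE3) ΔrhaA at 34 °C. Each TEVp single-site mutant (parent TEVp 0) is paired with a single-site variant of the 7-mer TEVs (canonical ENLYFQ|S). The substrate sits between flexible linkers in a Bxb1-sfGFP-TEVs-SsrA fusion, so cleavage stabilises Bxb1 and speeds flipping of a recombination array, read by NGS. The value is the raw area under the fraction-flipped curve over 0-4 h after rhamnose induction (AUC4h), with ≥20 reads per time point. It is not background-subtracted; inactive controls average about 0.047.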
# 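Note: Bxb1 expression induced with 0.2% (w/v) L-rhamnose at OD600 near 0.5, cultures sampled hourly, flipped fraction per protease–substrate barcode pair counted by paired-end Illumina sequencing.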
Variant,area with substrate ENAYFQS,area with substrate ENCYFQS,area with substrate ENDYFQS,area with substrate ENEYFQS,area with substrate ENFYFQS,area with substrate ENGYFQS,area with substrate ENHYFQS,area with substrate ENIYFQS,area with substrate ENMYFQS,area with substrate ENPYFQS,area with substrate ENQYFQS,area with substrate ENRYFQS,area with substrate ENSYFQS,area with substrate ENTYFQS,area with substrate ENVYFQS,area with substrate ENWYFQS,area with substrate ENKYFQS,area with substrate ENNYFQS,area with substrate ENYYFQS
MGEDLFKGPRDYNPISSSICHLTNESDGHTTSLYGIGFGPFIITNKHLFRRNNGTLVVQSLHGVFKVKDTTTLQQHLVDGRDMIIIRMPKDFPPFPQKLKFREPQREERICLVTTNFQTKSMSSMVSDTSCTFPSGDGIFWKHWIQTKDGQCGSPLVSTRDGFIVGIHSASNFTNTNNYFTSVPKNFMELLTNQEAQQWVSGWRLNADSVLWGGHKVFMVKPEEPFQPVKEATQL [S4D],0.0569,0.069,0.0553,0.0618,0.059,0.0639,0.0551,0.128,0.0046,0.0566,0.0553,0.0605,0.0473,0.0573,0.0872,0.0024,–,–,–
MGESEFKGPRDYNPISSSICHLTNESDGHTTSLYGIGFGPFIITNKHLFRRNNGTLVVQSLHGVFKVKDTTTLQQHLVDGRDMIIIRMPKDFPPFPQKLKFREPQREERICLVTTNFQTKSMSSMVSDTSCTFPSGDGIFWKHWIQTKDGQCGSPLVSTRDGFIVGIHSASNFTNTNNYFTSVPKNFMELLTNQEAQQWVSGWRLNADSVLWGGHKVFMVKPEEPFQPVKEATQL [L5E],0.0647,0.0752,0.0599,–,0.0535,0.0603,0.0641,0.101,–,0.0579,0.0462,0.0616,0.058,0.0599,–,–,0.0609,0.0814,0.0464
MGESLFKAPRDYNPISSSICHLTNESDGHTTSLYGIGFGPFIITNKHLFRRNNGTLVVQSLHGVFKVKDTTTLQQHLVDGRDMIIIRMPKDFPPFPQKLKFREPQREERICLVTTNFQTKSMSSMVSDTSCTFPSGDGIFWKHWIQTKDGQCGSPLVSTRDGFIVGIHSASNFTNTNNYFTSVPKNFMELLTNQEAQQWVSGWRLNADSVLWGGHKVFMVKPEEPFQPVKEATQL [G8A],0.0417,–,0.0618,0.0541,0.0506,0.0722,–,0.116,0.0794,0.0776,–,–,0.0577,–,0.0595,–,–,–,–
MGESLFKDPRDYNPISSSICHLTNESDGHTTSLYGIGFGPFIITNKHLFRRNNGTLVVQSLHGVFKVKDTTTLQQHLVDGRDMIIIRMPKDFPPFPQKLKFREPQREERICLVTTNFQTKSMSSMVSDTSCTFPSGDGIFWKHWIQTKDGQCGSPLVSTRDGFIVGIHSASNFTNTNNYFTSVPKNFMELLTNQEAQQWVSGWRLNADSVLWGGHKVFMVKPEEPFQPVKEATQL [G8D],0.0549,–,–,–,–,–,–,–,–,–,–,0.0551,–,–,0.0687,–,–,–,0.0615
MGESLFKFPRDYNPISSSICHLTNESDGHTTSLYGIGFGPFIITNKHLFRRNNGTLVVQSLHGVFKVKDTTTLQQHLVDGRDMIIIRMPKDFPPFPQKLKFREPQREERICLVTTNFQTKSMSSMVSDTSCTFPSGDGIFWKHWIQTKDGQCGSPLVSTRDGFIVGIHSASNFTNTNNYFTSVPKNFMELLTNQEAQQWVSGWRLNADSVLWGGHKVFMVKPEEPFQPVKEATQL [G8F],0.0708,0.072,0.102,0.0677,–,0.0344,0.048,–,–,–,–,–,–,0.0645,0.111,–,–,–,–
MGESLFKKPRDYNPISSSICHLTNESDGHTTSLYGIGFGPFIITNKHLFRRNNGTLVVQSLHGVFKVKDTTTLQQHLVDGRDMIIIRMPKDFPPFPQKLKFREPQREERICLVTTNFQTKSMSSMVSDTSCTFPSGDGIFWKHWIQTKDGQCGSPLVSTRDGFIVGIHSASNFTNTNNYFTSVPKNFMELLTNQEAQQWVSGWRLNADSVLWGGHKVFMVKPEEPFQPVKEATQL [G8K],0.0564,0.0628,0.0698,0.0513,0.0619,–,0.0563,–,–,0.0464,–,0.0439,0.0474,–,–,–,–,0.0556,–
MGESLFKPPRDYNPISSSICHLTNESDGHTTSLYGIGFGPFIITNKHLFRRNNGTLVVQSLHGVFKVKDTTTLQQHLVDGRDMIIIRMPKDFPPFPQKLKFREPQREERICLVTTNFQTKSMSSMVSDTSCTFPSGDGIFWKHWIQTKDGQCGSPLVSTRDGFIVGIHSASNFTNTNNYFTSVPKNFMELLTNQEAQQWVSGWRLNADSVLWGGHKVFMVKPEEPFQPVKEATQL [G8P],0.0479,–,0.0512,–,0.0403,–,0.0553,–,–,0.0536,–,–,–,–,0.0875,–,0.0527,–,–
MGESLFKGPKDYNPISSSICHLTNESDGHTTSLYGIGFGPFIITNKHLFRRNNGTLVVQSLHGVFKVKDTTTLQQHLVDGRDMIIIRMPKDFPPFPQKLKFREPQREERICLVTTNFQTKSMSSMVSDTSCTFPSGDGIFWKHWIQTKDGQCGSPLVSTRDGFIVGIHSASNFTNTNNYFTSVPKNFMELLTNQEAQQWVSGWRLNADSVLWGGHKVFMVKPEEPFQPVKEATQL [R10K],0.0624,0.0647,0.0349,0.0608,0.056,0.054,0.0623,0.0968,–,0.0647,0.0646,0.0629,0.0542,0.0617,0.0766,0.0503,0.063,–,0.0579
MGESLFKGPSDYNPISSSICHLTNESDGHTTSLYGIGFGPFIITNKHLFRRNNGTLVVQSLHGVFKVKDTTTLQQHLVDGRDMIIIRMPKDFPPFPQKLKFREPQREERICLVTTNFQTKSMSSMVSDTSCTFPSGDGIFWKHWIQTKDGQCGSPLVSTRDGFIVGIHSASNFTNTNNYFTSVPKNFMELLTNQEAQQWVSGWRLNADSVLWGGHKVFMVKPEEPFQPVKEATQL [R10S],0.0513,0.0628,0.0664,0.0631,0.0465,0.0587,0.056,0.102,–,0.07,0.0601,0.0688,0.0636,0.0699,0.0777,0.0489,0.0522,–,0.049
MGESLFKGPRWYNPISSSICHLTNESDGHTTSLYGIGFGPFIITNKHLFRRNNGTLVVQSLHGVFKVKDTTTLQQHLVDGRDMIIIRMPKDFPPFPQKLKFREPQREERICLVTTNFQTKSMSSMVSDTSCTFPSGDGIFWKHWIQTKDGQCGSPLVSTRDGFIVGIHSASNFTNTNNYFTSVPKNFMELLTNQEAQQWVSGWRLNADSVLWGGHKVFMVKPEEPFQPVKEATQL [D11W],0.0731,0.0868,0.0948,0.0551,0.0566,0.0687,0.0625,0.124,0.0792,0.0477,0.0612,0.0426,0.0603,0.0686,0.0738,0.0514,0.0854,0.0597,–
